According to publication PMC4336329 (PLoS ONE, 2015):
Hit rate of the full screen: of about 310,000 compounds, about 14,000 (4.5%) showed an effect of 50% or more. The effect is printed as a negative number. The list shows a part of the results.

target: human ether-à-go-go-related gene (hERG) potassium channel (human, UniProt Q12809); assay: primary screen, population patch clamp on CHO cells stably expressing hERG
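Further: peak tail current of the secondary pulse compared with the same well before compound.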

Chain of human ether-à-go-go-related gene (hERG) potassium channel (Q12809 whole entry, looked up): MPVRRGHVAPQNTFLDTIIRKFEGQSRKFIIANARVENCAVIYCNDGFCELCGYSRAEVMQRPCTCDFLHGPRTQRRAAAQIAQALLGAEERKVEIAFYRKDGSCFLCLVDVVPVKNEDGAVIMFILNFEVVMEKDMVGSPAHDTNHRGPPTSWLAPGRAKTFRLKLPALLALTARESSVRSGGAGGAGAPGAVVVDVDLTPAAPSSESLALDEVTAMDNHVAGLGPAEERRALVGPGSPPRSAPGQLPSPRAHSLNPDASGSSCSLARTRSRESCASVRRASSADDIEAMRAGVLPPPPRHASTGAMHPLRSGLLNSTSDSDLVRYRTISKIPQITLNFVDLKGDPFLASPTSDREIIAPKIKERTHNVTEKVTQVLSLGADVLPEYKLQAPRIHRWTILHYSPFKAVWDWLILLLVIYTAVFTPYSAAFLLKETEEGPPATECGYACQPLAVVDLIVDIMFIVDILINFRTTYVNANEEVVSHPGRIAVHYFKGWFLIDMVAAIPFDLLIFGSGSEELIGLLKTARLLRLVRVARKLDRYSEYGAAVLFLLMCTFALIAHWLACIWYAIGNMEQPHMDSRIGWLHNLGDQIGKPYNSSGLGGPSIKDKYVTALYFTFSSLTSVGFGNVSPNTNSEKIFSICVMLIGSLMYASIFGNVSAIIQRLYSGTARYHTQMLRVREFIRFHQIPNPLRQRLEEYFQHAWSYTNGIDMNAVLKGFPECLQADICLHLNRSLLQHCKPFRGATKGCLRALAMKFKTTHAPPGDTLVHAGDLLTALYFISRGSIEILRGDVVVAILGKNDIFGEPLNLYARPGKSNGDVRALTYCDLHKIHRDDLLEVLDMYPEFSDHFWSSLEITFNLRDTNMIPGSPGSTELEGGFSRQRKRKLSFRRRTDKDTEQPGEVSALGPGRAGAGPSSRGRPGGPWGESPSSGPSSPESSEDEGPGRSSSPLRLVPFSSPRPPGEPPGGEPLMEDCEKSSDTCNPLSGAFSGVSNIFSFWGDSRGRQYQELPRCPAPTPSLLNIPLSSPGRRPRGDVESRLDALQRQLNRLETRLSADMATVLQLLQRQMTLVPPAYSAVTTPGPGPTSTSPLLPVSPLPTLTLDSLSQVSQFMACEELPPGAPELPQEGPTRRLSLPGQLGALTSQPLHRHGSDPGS

| Structure (SMILES) | hERG current change (%, negative = inhibition) at 10uM [%] |
| --- | --- |
| O=C(CSc1nnc(-c2ccccc2Cl)o1)N1CCOCC1 | -3.86 |
| CC1=C(C(=O)Nc2ccccc2C)C(c2ccc(C)o2)NC(=S)N1 (stereo not shown) | 7.85 |
| CN(C)CCCOc1nc2c(c(=O)n(C)c(=O)n2C)n1C.Cl | 16.7 |
| COCC(C)n1c(C)cc(C(=O)COC(=O)CCc2nc3ccccc3c(=O)[nH]2)c1C (stereo not shown) | 5.91 |
| O=P(NS(=O)(=O)c1ccccc1)(Oc1ccccc1)Oc1ccccc1 | 5.77 |
| CCn1cnc2cc(NS(=O)(=O)c3ccc(OC)c(OC)c3)ccc21 | 13.5 |
| COc1cc(NC(=S)Nc2ccccn2)c(OC)cc1Cl | 15.8 |
| CC1=CC(=O)N(c2ccn(C)n2)C1=O | 20.4 |
| CC(=NCCO)c1c(O)n(C)c(=O)n(C)c1=O | 12.3 |
| COc1ccc(Cl)cc1C(=O)NNC(=O)CCNC(C)=O | 24.7 |
| Cc1ccc(NS(=O)(=O)c2ccc(C)c(NC(=O)COc3ccccc3)c2)c(C)c1 | -9.8 |
| COC(=O)N/N=C/c1ccc(-c2ccc(Cl)cc2Cl)o1 | 14.3 |
| Cn1cc(/C=C(\NC(=O)c2ccccc2)C(=O)NCCCN2CCOCC2)c2ccccc21 | 3.43 |
| COc1ccc(Cl)cc1NC(=O)CN(C)C1CCS(=O)(=O)C1 (stereo not shown) | -23.3 |
| COc1ccc(C(=O)N=C2CCC(C#N)=C3c4cc(OC)c(OC)cc4CCN23)cc1 | 11.5 |
| CSc1ncc(C(=O)Nc2ccccc2Cl)c(C)n1 | 13.6 |
| O=C(NCc1ccc2c(c1)OCO2)c1cccc(S(=O)(=O)N2CCOCC2)c1 | -10.1 |
| Cn1c(COc2ccccc2)nnc1SCC(=O)Nc1ccc(N2CCOCC2)cc1 | 2.57 |
| CCOc1ccccc1C(=O)N[C@H](C(=O)Nc1nc2c(s1)CCCC2)C(C)C | 9.91 |
| CC(NC(=O)CSc1nnc(COc2ccccc2)o1)c1ccccc1 (stereo not shown) | -13.9 |
| CSc1ccc(/C=N/Nc2ccc(Cl)c(C(=O)O)c2)cc1 | 6.73 |
| CCOC(=O)c1c(-c2ccc(-c3ccccc3)cc2)csc1NC(=O)CCN1CCOCC1 | 13.8 |

| Structure (SMILES) | hERG current change (%, negative = inhibition) at 10uM [%] |
| --- | --- |
| O=C(CCl)Nc1cc(S(=O)(=O)N2CCCCCC2)ccc1Cl | -22.9 |
| O=C1CC(c2ccccc2)CN1Cc1ccccc1 (stereo not shown) | -3.31 |
| COc1ccc(NC(=O)CN2CCN(S(=O)(=O)c3cccs3)CC2)cc1Cl | -36.9 |
| Cc1cccc(CN2CCC(Oc3ccc(C(=O)N4CCCC4)cc3)CC2)n1 | 5.49 |
| CSc1nnc(-c2ccccc2Cl)n1N | -2.43 |
| Cc1cccc(NC(=O)CCCSc2nc3ccccc3[nH]2)c1 | -13 |
| O=C(CN(C(=O)c1csnn1)c1ccc(F)cc1)NCc1ccc2c(c1)OCO2 | 9.12 |
| CCC1CCCCN1CCCNC(=O)C1CCN(c2nnc(-n3cccc3)s2)CC1 (stereo not shown) | -18.7 |
| CCOCCCNc1ncnc2c1[nH]c1ccccc12 | -8.92 |
| Cc1cc(C)c(S(=O)(=O)NC2CCN(Cc3ccccc3)CC2)c(C)c1.Cl | -47.6 |
| CC(C)NCC(O)COC1C2CC3CC(C2)CC1C3.Cl (stereo not shown) | 7.13 |
| CC(C)(C)C(=O)/C=c1\s/c(=C\c2ccc(-c3ccc([N+](=O)[O-])cc3)o2)c(=O)n1CC(=O)NC(N)=O | 18.9 |
| Cc1ccc(C2C3=C(CC(C)(C)CC3=O)Nc3[nH]c(=S)[nH]c(=O)c32)cc1 (stereo not shown) | 42.3 |
| Cc1sc(NC(=O)CN(C)C2CCCCC2)nc1-c1ccc2c(c1)CCN2S(=O)(=O)c1ccccc1 | 11 |
| COc1cc2nc(CN(CCC(C)C)Cc3nc4cc(OC)c(OC)cc4c(=O)[nH]3)[nH]c(=O)c2cc1OC | -2.68 |
| CC1CN(C(=O)c2ccccc2OCc2ccccc2Cl)CC(C)O1 (stereo not shown) | -6.54 |
| COc1ccc(N2CCN(C(=O)CSc3nc4[nH]ncc4c(=O)n3-c3cccc4ccccc34)CC2)cc1 | -30 |
| COc1ccc2c(c1)c(C(C)=O)c(C)n2C | 4.06 |
| CCN(CC)CCNS(=O)(=O)c1ccc(Cl)cc1.Cl | -12.9 |
| COC(=O)c1cc(NS(=O)(=O)c2ccc(N3CCCCCC3)c([N+](=O)[O-])c2)cc(C(=O)OC)c1 | 4.17 |
| O=C(NCCCN1CCOCC1)c1ccc(-n2nc(C(F)(F)F)cc2-c2cccs2)cc1 | -80.4 |
